Measurements taken from patent US20150087619A1, “METHOD OF MITIGATING VIRUS ASSOCIATED END-ORGAN DAMAGE” (CHIMERIX, INC., priority 2012, published 2015).

Assay: Pharmacokinetic analysis in pediatric and geriatric patients
Type: in vivo, human
Conditions: pediatric patients aged 4-16 years; approx. 1-4 mg/kg once or twice weekly
Procedure: This study population included five children. Pediatric patients received approximate doses of 1, 2, 3, or 4 mg/kg given once or twice weekly. […] Variability in PK parameters for this age group was high with respect to AUC, Cmax, and CL/F. In general, pediatric patients had lower plasma concentrations of HDP-CDV and CDV than adult healthy volunteers or patients on the same dose and schedule.
The study population also included 3 elderly adults. Geriatric patients received approximate doses of 1, 2, or 3 mg/kg given either once or twice weekly. Similar to pediatric patients, the medical condition of geriatric patients varied widely. Variability in PK parameters for this age group was high with respect to AUC, Cmax, and CL/F. In general, geriatric patients had higher plasma concentrations of HDP-CDV and CDV and lower CL/F than those observed in younger healthy volunteers or patients.
High CDV CL/fm values were also observed in children.

SMILES: CCCCCCCCCCCCCCCCOCCCOP(=O)(O)COC(CO)Cn1ccc(N)nc1=O (stereo not shown) [HDP-CDV]
- plasma concentrations of HDP-CDV and CDV vs adult healthy volunteers or patients: lower
